Article PMC6029062
Results are given in words; binding and its absence hold for the method and conditions named. For some of these results: In cells and extracts the contact can be indirect. Some binding calls cover weakened binding; strength is not graded here. For some of these results: Tags and fused reporters may be left off the sequences shown.

The chains behind the UniProt entries cited, without tags or fusion partners. Residues count along the entry.
UniProt Q96AC1: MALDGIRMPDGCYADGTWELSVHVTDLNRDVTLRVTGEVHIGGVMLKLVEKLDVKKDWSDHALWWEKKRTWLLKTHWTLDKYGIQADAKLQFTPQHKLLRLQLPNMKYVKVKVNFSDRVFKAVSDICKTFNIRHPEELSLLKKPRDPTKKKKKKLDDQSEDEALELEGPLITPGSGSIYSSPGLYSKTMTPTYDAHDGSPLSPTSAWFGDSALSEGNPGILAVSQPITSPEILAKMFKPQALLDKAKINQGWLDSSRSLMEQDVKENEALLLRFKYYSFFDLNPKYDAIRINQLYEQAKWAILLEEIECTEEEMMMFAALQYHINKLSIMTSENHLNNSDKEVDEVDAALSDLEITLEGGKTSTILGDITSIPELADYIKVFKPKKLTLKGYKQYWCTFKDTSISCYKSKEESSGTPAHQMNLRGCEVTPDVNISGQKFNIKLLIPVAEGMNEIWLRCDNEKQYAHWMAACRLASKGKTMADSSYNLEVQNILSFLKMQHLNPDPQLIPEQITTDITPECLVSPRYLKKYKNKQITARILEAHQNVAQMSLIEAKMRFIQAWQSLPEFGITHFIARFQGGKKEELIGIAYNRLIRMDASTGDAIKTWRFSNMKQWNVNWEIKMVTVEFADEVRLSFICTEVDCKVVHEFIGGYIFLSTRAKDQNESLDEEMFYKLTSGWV
UniProt P18084, residues 743-799: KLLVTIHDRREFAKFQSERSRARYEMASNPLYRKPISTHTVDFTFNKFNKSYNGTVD
UniProt P18564, residues 731-788: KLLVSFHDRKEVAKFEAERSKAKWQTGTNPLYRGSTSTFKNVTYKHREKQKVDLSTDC

Columns and labels:
[1] = target: kindlin-2 (yeast two-hybrid fusion in pGBKT7) (UniProt Q96AC1); assay: two-hybrid; Matchmaker Gold Yeast Two-hybrid system; β3-endonexin or kindlin-2 in pGBKT7, integrin β CTs in pGADT7; serial dilution on SD-3 selection media (−Leu/−Trp/−His)
GST-fused integrin β1 CT = assay: pull-down; purified GST-fused β CT proteins on Glutathione Sepharose 4B beads, incubated with lysates of HUVECs expressing EGFP-β3-endonexin overnight at 4 °C; Western blotting of the precipitates; only the target purified
GST-fused integrin β2 CT = assay: as above
GST-fused integrin β5 CT = GST-fused integrin β5 CT (UniProt P18084); assay: as above
GST-fused integrin β6 CT = GST-fused integrin β6 CT (UniProt P18564); assay: as above
GST-fused integrin β7 CT = target: T1, GST-fused integrin β7 CT (UniProt P26010); assay: as above
T1 sequence: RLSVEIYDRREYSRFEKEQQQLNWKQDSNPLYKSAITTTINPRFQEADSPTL

In the case of “integrin β6 CT (yeast two-hybrid fusion in pGADT7) (from UniProt P18564 731-788) (domain or fragment)”, the binding [1] is reported as “no binding”.

“endogenous kindlin-2 (from UniProt Q96AC1 1-680)” was tested, and the binding (GST-fused integrin β1 CT) was “binds”, the binding (GST-fused integrin β2 CT) was “no binding” and the binding (GST-fused integrin β5 CT) was “no binding”. The binding (GST-fused integrin β6 CT) was “no binding” and the binding (GST-fused integrin β7 CT) was “binds”.

With “integrin β5 CT (yeast two-hybrid fusion in pGADT7) (from UniProt P18084 743-799) (domain or fragment)” the binding [1] was “no binding”.

B1: integrin β1 CT (yeast two-hybrid fusion in pGADT7) (domain or fragment)
chain: KLLMIIHDRREFAKFEKEKMNAKWDTGENPIYKSAVTTVVNPKYEGK
B1 was tested, and the binding [1] was “binds”.

B2: integrin β7 CT (yeast two-hybrid fusion in pGADT7) (domain or fragment, UniProt P26010 747-798)
chain: RLSVEIYDRREYSRFEKEQQQLNWKQDSNPLYKSAITTTINPRFQEADSPTL
B2 was tested, and the binding [1] was “binds”.

B3: integrin β2 CT (yeast two-hybrid fusion in pGADT7) (domain or fragment)
chain: KALIHLSDLREYRRFEKEKLKSQWNNDNPLFKSATTTVMNPKFAES
With B3 the binding [1] was “no binding”.
